# Several values for one entry are separate records, joined by “and”; a condition that tells them apart may be missing. Identical values can stand only once.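 Tested at 5 concentrations; 48 h exposure; 96-well plates; endpoints linearly interpolated, else capped at highest concentration. GI50 = concentration required for 50% inhibition of growth. At the TGI there is no net growth.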
# Test system: NCI-H322M lung
# Test: NCI-60 cell line screen, 48 h
Compound,GI50,TGI
Nc1nc(SCc2ccccc2CCl)c2[nH]cnc2n1,15 µM,51.4 µM
O=c1cc(-c2ccccc2)oc2ccc(Cl)cc12,,> 100 µM
Cc1c(Cl)ccc2c1NC(=O)C2(O)CC(=O)c1ccc(Cl)cc1 (stereo not drawn),,> 100 µM
COc1cc(-c2nc(-c3ccccc3)c(-c3ccccc3)[nH]2)cc(OC)c1O,25.1 µM,63.1 µM
CCn1c(-c2nonc2N)nc2ccccc21,> 25 µM,> 25 µM
N#C[S-].[La+3].c1ccc(-c2ccccn2)nc1.c1ccc(-c2ccccn2)nc1.c1ccc(-c2ccccn2)nc1,36.9 µM,> 100 µM
Cc1cc(NCCCCCCCNc2cc(C)nc3cc(N)ccc23)c2ccc(N)cc2n1,,> 100 µM
Cc1ccc(S(=O)(=O)OC[C@@]2(C)CC[C@]3(C)CC[C@]4(C)C(=C3C2)C=C[C@@H]2[C@@]3(C)CCCNC(C)(C)[C@@H]3CC[C@]24C)cc1,1.62 µM,3.01 µM
CC(=O)CCC1(c2ccccc2)OC(=O)C(C#N)=C1c1ccccc1 (stereo not drawn),,> 100 µM
CCCC1C[C@H]2CCCCN2[C@H]2CCCN12 (stereo partly drawn),,> 100 µM
COC(=O)c1ccccc1CC1Cc2c(C)ccc(C)c2C1=O (stereo not drawn),,> 100 µM
FC(F)(F)c1ccccc1C1SCc2nc3ccccc3n21 (stereo not drawn),,> 100 µM
C/C=C/C=C/c1cc2cc3c(c(O)c2c(=O)[nH]1)C1(CC3)C(O)=c2c(=O)c3c(=O)cc(OC)c(=O)c=3c(=O)c2=C1O (stereo not drawn),0.55 µM and 4.74 µM,15.7 µM and 22.2 µM
Cn1cc(-c2cc(-c3cn(C)c4ccccc34)[nH]n2)c2ccccc21,> 100 µM,> 100 µM
COc1ccc2nc3ccccc3c(NCCNCCO)c2c1,0.459 µM,2.02 µM
COc1ccc(/C=C/C(=O)c2c(-c3ccccc3)nn(C)c(=O)c2N2CC2C)cc1 (stereo not drawn),,> 100 µM
COC(=O)[C@@]12OC[C@]34[C@H]([C@@H](O)[C@@H]1O)[C@@]1(C)CC(=O)C(O)=C(C)[C@@H]1C[C@H]3OC(=O)[C@H](OC(=O)/C=C(\C)C(C)C)[C@@H]24,,0.0915 µM and 0.325 µM and 0.0462 µM
CCN(CC)c1c(C(C)(C)C)c(=O)n2ccsc2c1OC(C)=O,,32.3 µM
S=C(NCc1ccccn1)N/N=C/c1ccccn1,,> 100 µM
CCOC(=O)[C@@]12C[C@](/C=C/OC)(O[Si](C)(C)C)[C@@]13c1cc(OC)c(OC)cc1CCN3C(=O)C2=O,,> 100 µM
O=C(/C=C/c1ccc(OCc2ccccc2)cc1)NCc1ccc(C(=O)NCCc2ccccc2)cc1,,> 100 µM
CCCCCCCCCCCC1N=C(N)N=C(N)N1c1cccc(Br)c1 (stereo not drawn),1.17 µM,5.48 µM
Cc1cc(N2CCC(N3CCCC3)CC2)nc(/N=C(\N)Nc2ccc(Cl)c(Cl)c2)n1,1.89 µM,3.75 µM
O=C(C[N+]12CN3CN(CN(C3)C1)C2)c1ccc(-c2ccccc2)cc1,,54.3 µM
COc1cc(C(=O)c2cnc(-c3c[nH]c4cccc(C)c34)[nH]2)cc(OC)c1OC,0.0168 µM,> 100 µM

Compound,GI50,TGI
NNc1c(C(N)=O)c2c(N)ncnc2n1C1OC(CO)C(O)C1O (stereo not drawn),0.11 µM,9.77 µM and 2.6 µM
NC(=S)NNCC(=O)CC(O)(C(F)(F)F)C(F)(F)Cl (stereo not drawn),,> 100 µM
CNC(=S)N/N=C/C(C)=N/NC(=S)NC,,> 100 µM
CC(=O)Oc1ccc2cc(Oc3cc(Cl)c(Cl)cc3Cl)c(=O)oc2c1,,55.3 µM
COc1cc2c(c(OC)c1OC)C(=O)c1c(O)cc(C)c(OC)c1C2=O,,> 100 µM
C[N+](C)(C)CC1CCC(C[N+](C)(C)C)C1=NO (stereo not drawn),,> 100 µM
O=C(/C=C/c1ccccc1)c1ccc(Cl)cc1Cl,,> 100 µM
CC(C)c1ccc(O)c(Cc2cc(C(C)C)cc(Cc3cc(C(C)C)ccc3O)c2O)c1,,3.49 µM
O=C(/C=C/c1ccc(O)c(O)c1)N1CCN(c2ccc(Cl)cc2)CC1,21.2 µM,> 100 µM
O=C(/C=C/c1ccc(-c2ccccc2)cc1)NCc1ccc(C(=O)NCCc2ccccc2)cc1,,> 100 µM
COC(=O)/C=C(C)/C=C\COC1CCCCO1 (stereo not drawn),,> 100 µM
C[N+]1(C)CCCC(C#N)(c2ccccc2)CC1 (stereo not drawn),,> 100 µM
S=c1ncc(-c2cncc(-c3cnc(=S)[nH]c3)n2)c[nH]1,,> 100 µM
COCN1C(=O)[C@@H]2CCCN2C(=O)c2ccc(N)cc21,,> 100 µM
COc1cc2ncn(-c3cc(OCc4ccccc4C(F)(F)F)c(C(N)=O)s3)c2cc1OC,4.12 µM,> 25 µM
COC(=O)CC1(O)C(=O)OCc2c1cc1n(c2=O)Cc2c-1nc1ccccc1c2OC (stereo not drawn),,> 25.5 µM
Nc1cccc(-c2cc(=O)c3cc4c(cc3[nH]2)OCO4)c1,,> 100 µM
O=c1c(-c2nc3ccccc3c3ccccc3c2=O)nc2ccccc2c2ccccc12,,> 100 µM
CO[C@@]12C[C@H](CNC(=O)c3ccc[nH]3)O[C@@H]1NC(=O)N2,,> 100 µM
Cc1ccc(C(=O)N/N=C(\N=Nc2ccc([N+](=O)[O-])cc2)c2ccc(N(CCC#N)CCC#N)cc2C)cc1,,> 100 µM
COc1cccc(NC(=O)CC(=O)NN)c1,,> 100 µM
CC[C@H](C)[C@H](NC(=O)[C@H]1CCCCN1C)C(=O)N(C)[C@H](CCc1nc(C(=O)N[C@@H](Cc2ccccc2)C[C@H](C)C(=O)O)cs1)C(C)C,0.395 µM,> 25 µM
Cc1nn2c(=O)c([N+](=O)[O-])c(/C=C/c3ccc(F)cc3)nc2s1,,24.8 µM
COC(=O)c1ccccc1C1CN=NC12Cc1ccc(C)cc1C2=O (stereo not drawn),,> 100 µM
O=CN1CCN(c2ccc3ccc(=O)[nH]c3n2)CC1,,> 100 µM

Compound,GI50,TGI
CN1CCCCC1CCN1c2ccccc2Sc2ccc(Br)cc21 (stereo not drawn),3.05 µM,11.2 µM
CN(C)C(=O)C(F)(F)C(c1ccccc1)C1C(=O)N(C)C(=O)N(C)C1=O (stereo not drawn),,> 100 µM
CC1(C)CC(O)CC(C)(C)N1O,,> 100 µM
COc1cc2c(oc(=O)c3c4occc4cc(OC)c23)c2cccc(O)c12,,> 100 µM
CNC(=O)[C@H](Cc1ccccc1)NC(=O)N(CCC#N)CCN(C(=O)N[C@@H](Cc1ccccc1)C(=O)OC)c1ccccc1,,> 100 µM
O=c1cc(NNc2cccc3ccccc23)[nH]c(=O)[nH]1,,30.1 µM
COc1ccc(-c2nc3ccccc3c(=O)[nH]2)cc1,,> 100 µM
Nc1nc(Cl)c2ncn(CCCC(c3ccccc3)P(=O)(O)O)c2n1 (stereo not drawn),,> 100 µM
CC(C)(C)OC(=O)Cn1ncn(NC(=O)Cc2ccccc2)c1=S,,> 10 µM
Cc1cc(N(CCC#N)CCC#N)ccc1/C=C(\NC(=O)/C=C/c1ccccc1)C(=O)Nc1ccccc1Cl,,> 100 µM
Cc1nc2c(C)ccc([N+](=O)[O-])c2c(NCCCN(C)C)c1C,,> 100 µM
Oc1c(Br)cc2c(c1Br)-c1c(c(O)c3c4c1=NCCC=4C=N3)NCC2,,35.6 µM
CC(C)=C[C@@H]1C[C@H](C)[C@H]2CC[C@H](C)c3c(O)c(OC4OC(C)C(O)C(O)C4O)c(C)c1c32 (stereo partly drawn),13.6 µM,26.7 µM
CCN(CC)CCOC(COc1cc(C)cc(C)c1)COc1cc(C)cc(C)c1,2.26 µM,10.4 µM
N[C@@H]1CCCN(c2c(Br)cnc3[nH]cc(NC(=O)C4CC4)c23)C1,0.324 µM,> 100 µM
C/C(=C\C(=O)Nc1ccc2n[nH]nc2c1)Nc1ccc2n[nH]nc2c1,,> 100 µM
CCCN1C(=O)/C(=C/c2ccc(SC(F)(F)F)cc2)SC1=Nc1ccc(OC)cc1,5.73 µM,21.9 µM
CC1(C)N=C(N)N=C(N)N1c1ccc(CCCC(=O)Nc2ccc(S(=O)(=O)F)cc2)cc1,29.9 µM,> 100 µM
O=C(NNC(=O)c1ccco1)c1ccco1,,> 100 µM
Cc1c2cc[n+](Cc3ccc(I)cc3)cc2c(C)c2c1[nH]c1ccccc12,,> 19.6 µM
Nc1nc(Sc2ccc([N+](=O)[O-])c3nonc23)c2[nH]cnc2n1,,21.2 µM
Nc1nc(Cl)c(CO)c(NCC2(CO)CCC2)n1,,> 100 µM
COc1cccc(C2CC(=O)Nc3c2c(C)nn3-c2nc3ccccc3[nH]2)c1OC (stereo not drawn),9.41 µM,> 100 µM
CC[C@H](C)[C@H](NC(=O)C12C3C4C1C1C2C3C41NC)C(=O)N(C)[C@H](C[C@@H](OC(C)=O)c1nc(C(=O)N[C@@H](Cc2ccccc2)C[C@H](C)C(=O)OC)cs1)C(C)C (stereo partly drawn),0.895 µM,> 14.3 µM
[CH3][Sn]([CH3])([CH3])[S]C(=S)N1CCOCC1,6.05 µM,> 100 µM

Compound,GI50,TGI
O=c1c(I)c[nH]cc1I,> 100 µM,> 100 µM
COC(=O)c1c(C(=O)OC)c(-c2ccccc2)n(-c2ccccc2)c(=O)c1-c1ccccc1,,> 100 µM
Cc1ccc(NCCNCC(C)(C)O)c2c(=O)c3ccc(Cl)cc3sc12,1.19 µM,2.52 µM
O=c1[nH]c2cc(Cl)ccc2nc1/C(=N\Nc1ccccc1)C(O)c1ccc2c(c1)OCO2 (stereo not drawn),,> 100 µM
O=C(O)CN1C(=O)c2ccc(NC(=O)C(=O)O)cc2S1(=O)=O,,> 100 µM
COC(=O)C(=O)C(C(=O)C(=O)Nc1ccc([N+](=O)[O-])cc1)c1nc2ccccc2[nH]c1=O (stereo not drawn),,> 100 µM
ClC1=NSSC1(Cl)Cl,,> 100 µM
O=C(Nc1cccc(-n2ccc3c(NC(=O)c4ccccc4)ncnc32)c1)Nc1ccc(Cl)c(C(F)(F)F)c1,6.93 µM,15.6 µM
O=[N+]([O-])c1cccc(/C=N/Nc2ccc3ccccc3n2)c1O,,29.1 µM
Cn1c(=O)c(-c2ccccc2Cl)cc2cnc(NC3CCOCC3)nc21,12 µM,> 25 µM
COc1cc2c(c(OC)c1OC)-c1cc(I)c(O)cc1[C@@H](NC(C)=O)CC2,0.0413 µM,> 100 µM
COC1C(OC(=O)c2ccc(C)[nH]2)C(O)C(Oc2ccc3c(O)c(NC(=O)c4ccc(O)c(CC=C(C)C)c4)c(=O)oc3c2Cl)OC1(C)C (stereo not drawn),,37.9 µM
O=C1NC(N2CCCC(CO)C2)=N/C1=C\c1cccs1 (stereo not drawn),,> 100 µM
O=[N+]([O-])c1ccccc1N=Nc1c(O)[nH]c2c(Cl)cccc12,,> 100 µM
[Br][Pb]([c]1ccccc1)([c]1ccccc1)[c]1ccccc1,0.242 µM,0.718 µM
CCOC(=O)Cc1c(C(=O)OCC)[n+](=O)c2cc(Cl)c(Cl)cc2n1[O-],,17.4 µM
CC(=O)OC1CCn2c1nc1cc([N+](=O)[O-])c(C)cc12 (stereo not drawn),,> 100 µM
CC(=O)c1csc2c1C(=O)c1ccccc1C2=O,,3.43 µM
CC(=O)OCC1OC(OCCCOP(=O)(OCCC#N)OCC2OC(n3cnc4c(N)ncnc43)C(OC(=O)c3ccccc3)C2OC(=O)c2ccccc2)C(OC(C)=O)C(OC(C)=O)C1OC(C)=O (stereo not drawn),,> 100 µM
C=CCNC(=S)NNC(=O)c1c(C)nc2sccn12,,> 100 µM
CCn1cc(C(=O)O)c(=O)c2cc(F)c(N3CCN(S(=O)(=O)c4ccc(Cl)cc4Cl)CC3)cc21,2.86 µM,8.27 µM
CCOC(=O)c1ccc(N(CCOS(C)(=O)=O)CCOS(C)(=O)=O)cc1,,> 100 µM
